Molecules are shown by their SMILES. The list shows a part of the results. Many values rest on one well or one pass, so single values are uncertain.
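Also: cell number obtained by counting DAPI-stained nuclei in high-throughput microscope images with image analysis software, screen run in 1,536-well plates.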

The test system of this assay is MeWo. Put plainly: cell count relative to DMSO control; melanoma cells; higher = more viable cells. Conditions: library dose: low library concentration; 72 h.
`Cc1ccc(NC(=O)c2cccc(N(C)C)c2)cc1NC(=O)c1ccc(O)cc1` + COc1ccc2c(c1)CCC1C2CCC2(C)C(NCCCCCCN3C(=O)C=CC3=O)CCC12 [U73122] (first compound 2 µM, partner dose 0.4 µM) showed a cell count of 102%.
As for `CN(NC(=O)CC(=O)NN(C)C(=S)c1ccccc1)C(=S)c1ccccc1` + CCc1ccc(CCOc2ccc(CC3SC(=O)NC3=O)cc2)nc1 [pioglitazone] (first compound 0.006 µM, partner dose 2 µM), the cell count stood at 97.5%.
On to `CN(NC(=O)CC(=O)NN(C)C(=S)c1ccccc1)C(=S)c1ccccc1` + Oc1nc(-c2ccc(C(F)(F)F)cc2)nc2c1CSCC2 [XAV939] (first compound 0.006 µM, partner dose 2 µM), for which the cell count was 94.3%.
The compound `CCc1ccc(CCOc2ccc(CC3SC(=O)NC3=O)cc2)nc1` (stereo not given) [pioglitazone] + CCN(CC)CCCCNc1ncc2cc(-c3cc(OC)cc(OC)c3)c(NC(=O)NC(C)(C)C)nc2n1 [PD173074] (first compound 2 µM, partner dose 0.1 µM) gave a cell count of 105%.
As for `CN(NC(=O)CC(=O)NN(C)C(=S)c1ccccc1)C(=S)c1ccccc1` + Cc1cc([N+](=O)[O-])ccc1NS(=O)(=O)c1cc(Cl)ccc1Cl [FH535] (first compound 0.006 µM, partner dose 1 µM), the figure is 74.3%; as for `CC(C)(C)c1cnc(CSc2cnc(NC(=O)C3CCNCC3)s2)o1` + CCCCCCCCCCCC1=C(O)C(=O)C=C(O)C1=O [Embelin] (first compound 0.01 µM, partner dose 1.2 µM), 103%; as for `Cc1ccc(NC(=O)c2cccc(N(C)C)c2)cc1NC(=O)c1ccc(O)cc1` + O=C1NC(=O)/C(=C/c2ccc(-c3ccc(F)cc3O)o2)S1 [AS252424] (first compound 2 µM, partner dose 1 µM), 86.8%.
For `CC(C)(C)c1cnc(CSc2cnc(NC(=O)C3CCNCC3)s2)o1` + CCN(CC)CCCCNc1ncc2cc(-c3cc(OC)cc(OC)c3)c(NC(=O)NC(C)(C)C)nc2n1 [PD173074] (first compound 0.01 µM, partner dose 0.1 µM) the value was 97.9%.
In turn, `Cc1ccc(NC(=O)c2cccc(N(C)C)c2)cc1NC(=O)c1ccc(O)cc1` + COc1ccc(-c2ccc3c(N4CCOCC4)nc(N4C[C@@H](C)O[C@@H](C)C4)nc3n2)cc1CO [KU0063794] (first compound 2 µM, partner dose 0.02 µM) came in with a cell count of 90.6%.
Consider `Cc1ccc(NC(=O)c2cccc(N(C)C)c2)cc1NC(=O)c1ccc(O)cc1` + O=C(Nc1ccccc1)c1cc([N+](=O)[O-])ccc1Cl [GW9662] (first compound 2 µM, partner dose 2 µM), for which the cell count is 87.3%.
As for `CCc1ccc(CCOc2ccc(CC3SC(=O)NC3=O)cc2)nc1` (stereo not given) [pioglitazone] + COc1ccc(-c2ccc3c(N4CCOCC4)nc(N4C[C@@H](C)O[C@@H](C)C4)nc3n2)cc1CO [KU0063794] (first compound 2 µM, partner dose 0.02 µM), the figure is 93.7%; as for `COc1cc2c(Oc3ccc4[nH]c(C)cc4c3F)ncnc2cc1OCCCN1CCCC1` [cediranib] + COC(=O)c1sccc1S(=O)(=O)Nc1ccc(Nc2ccccc2)cc1OC [GSK0660] (first compound 0.4 µM, partner dose 1 µM), 107%.
Turning to `CN(NC(=O)CC(=O)NN(C)C(=S)c1ccccc1)C(=S)c1ccccc1` + COc1ccc(-c2ccc3c(N4CCOCC4)nc(N4C[C@@H](C)O[C@@H](C)C4)nc3n2)cc1CO [KU0063794] (first compound 0.006 µM, partner dose 0.02 µM), the cell count is 78.3%.
The compound `CCc1ccc(CCOc2ccc(CC3SC(=O)NC3=O)cc2)nc1` (stereo not given) [pioglitazone] + COc1ccc(COc2ccc(Cc3cnc(N)nc3N)cc2OC)cc1 [GW2580] (first compound 2 µM, partner dose 1 µM) gave a cell count of 95.8%.
`Cc1ccc(NC(=O)c2cccc(N(C)C)c2)cc1NC(=O)c1ccc(O)cc1` + CCCCCCCCCCCC1=C(O)C(=O)C=C(O)C1=O [Embelin] (first compound 2 µM, partner dose 1.2 µM) returned a cell count of 96.6%.
For `Cc1ccc(NC(=O)c2cccc(N(C)C)c2)cc1NC(=O)c1ccc(O)cc1` + CCN(CC)CCCCNc1ncc2cc(-c3cc(OC)cc(OC)c3)c(NC(=O)NC(C)(C)C)nc2n1 [PD173074] (first compound 2 µM, partner dose 0.1 µM) the value was 93.4%; for `CCc1ccc(CCOc2ccc(CC3SC(=O)NC3=O)cc2)nc1` (stereo not given) [pioglitazone] + CCCCCCCCCCCC1=C(O)C(=O)C=C(O)C1=O [Embelin] (first compound 2 µM, partner dose 1.2 µM), 94.5%; for `COc1cc2c(Oc3ccc4[nH]c(C)cc4c3F)ncnc2cc1OCCCN1CCCC1` [cediranib] + CCCCCCCCCCCC1=C(O)C(=O)C=C(O)C1=O [Embelin] (first compound 0.4 µM, partner dose 1.2 µM), 108%.
For `CC(C)(C)c1cnc(CSc2cnc(NC(=O)C3CCNCC3)s2)o1` + Cc1cc([N+](=O)[O-])ccc1NS(=O)(=O)c1cc(Cl)ccc1Cl [FH535] (first compound 0.01 µM, partner dose 1 µM) the value was 95.7%; for `CC(C)(C)c1cnc(CSc2cnc(NC(=O)C3CCNCC3)s2)o1` + N#Cc1c(O)c2c(-c3ccc(-c4ccccc4O)cc3)csc2[nH]c1=O [A769662] (first compound 0.01 µM, partner dose 2 µM), 96.6%.

The record behind these values is the supplement of paper PMC4604168 (melanoma cell lines).
